Data on 73 sequences can be found in publication PMC10726135.

The other results are listed elsewhere or left out. At the low end of the ranking the order means little. Measured with an extract: partners may take part in the binding.

The target of this test is T1, HNF4alpha2 (COS-7 nuclear extract) (UniProt P41235).
T1 sequence: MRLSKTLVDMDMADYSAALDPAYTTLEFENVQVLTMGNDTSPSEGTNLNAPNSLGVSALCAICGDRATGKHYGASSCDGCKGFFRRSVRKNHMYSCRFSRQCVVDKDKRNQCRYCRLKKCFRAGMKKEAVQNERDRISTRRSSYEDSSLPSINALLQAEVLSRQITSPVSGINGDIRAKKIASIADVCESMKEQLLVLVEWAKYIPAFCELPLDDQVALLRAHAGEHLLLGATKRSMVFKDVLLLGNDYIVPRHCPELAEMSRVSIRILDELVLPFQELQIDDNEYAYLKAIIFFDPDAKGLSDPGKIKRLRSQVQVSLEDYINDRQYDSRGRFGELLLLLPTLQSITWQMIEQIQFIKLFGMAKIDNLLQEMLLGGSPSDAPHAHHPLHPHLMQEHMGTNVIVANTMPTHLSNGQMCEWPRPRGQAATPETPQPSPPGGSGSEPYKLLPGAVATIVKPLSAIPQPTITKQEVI
The test is described as follows: protein-binding microarray. The settings on record: COS-7 nuclear extract on double-stranded Agilent 4x180k PBM; binding buffer, salt, pH and temperature not given; high values mean tight binding; double strand, one strand shown; sequences stand for … in …GCCTAGGGAGATTAGAGTATCGGTCGA
For GGTGTGCTGTTAGCTGAAGGACGTCAGAAC, the binding signal (log2 normalized intensity) was determined as 1.25. The result for GGGGGCAAGGTACACCATCTATGAGCTCAA reads 1.28; that for CATTTGGGGTCAGATAATTCTTTGCTGTGG, 1.93; that for ATGGGATGACCTTTGAGCAATAGGAAATGG, 4.18. For the sequence CAGATCACAAAGGAGCTTGTAAGCCACAGT, the binding signal (log2 normalized intensity) was -1.14.

For the sequence TTGTACTTTGGAGTTTACTTTAGATGTGTT, the binding signal (log2 normalized intensity) stood at 2.86.

On to ATCCAACCTTCTCCCACTTCCCTGCCTTTG, for which the binding signal (log2 normalized intensity) was found to be 0.905.

For the sequence TTTGTCGCCTCTGACTTCTGACTTTTACCC, the binding signal (log2 normalized intensity) stood at 2.23. Regarding GGCTCAATGAGGTCAATAGTCCAGATACAG, the binding signal (log2 normalized intensity) was 3.53. On to GTGATACTCAAGGCATTTTCTTGTTGACTT, for which the binding signal (log2 normalized intensity) came out at 1.02. The result for TGTGAAGAGTGTGGACTTTCACCTCCACCA reads 6.06; that for GGAAAACCAGAGACCTTTGTTCACTTGTTT, 2.52; that for GATACTGATAACATGAGGTAGAGGGACACT, -0.851. The result for ACCATGAGGTGACGGCTAAGAGAAATCCAC reads -1.2; that for TCCCCAGAGCCCCCTTGATGCATCAGACCC, 4.63; that for ATGTAATGTATGCATAGACTGCCCAGAATT, 0.478. With AGTTTTGAGTGTGTTTCTTGTTTCAGAGTA, the binding signal (log2 normalized intensity) came out at 1.87. To CTACCTTTGCTCTTAATTCAATGGGGTGGG belongs 1.48; to GCTCACTATTAACTTTTCCATGTCCAAAGG, 2.39; to TCGGCTCTCAGCGGAACTTTCCTCTCCGCG, -1.13. As for CTTTCCTGTTGGGGAGCAAAGGTTAGCAAG, the binding signal (log2 normalized intensity) stood at 3.85. To CTCCTGCGGTCCGGACTCTGCCCCACAATT belongs 3.76; to GTCTCAGGTGGAGATAAGGAATTTGTTAAG, 0.804; to GTCAAACTTTGGACCCACTGCAGGATTGGA, 3.52. As for CTTCACTTGTAGGAGACCTTGAGGATAAGT, the binding signal (log2 normalized intensity) came to 1.39.

For CTATTCTCTAAACTCTGGGCTCTATTTGGA, the binding signal (log2 normalized intensity) was 0.344. To TAATTAACTTGTGTTCAGAGCTTGCTGCAT belongs -0.839; to CTTATCTCAAGAATTGTCTAACCGCAGCAA, -1.15; to CTCTGCCTGCGTCTTATATAAGCTATTACT, -0.778.

Turning to CTCCGCCCCATTGTCTTAGGCCTCGGGAGT, the binding signal (log2 normalized intensity) stood at 1.51.

GTACTCCTCACTGTTGTGACATACTGCCTT: the binding signal (log2 normalized intensity) stood at 1.01.

As to GTTATCCTTGTTCTATGTTCACATCTCCTC, the binding signal (log2 normalized intensity) is 1.41. The result for ATGATAACCCAGTGCAATGCCTAAACCAGG reads -1.08; that for TATCAGCCTGTGACAAAGTCCATCTGGGCA, 3.25. The result for GCCGCCGCCGTGGGAGAGGCCGCCCCCTGC reads 4.07; that for TGATAGCCTTTTACCTTGGCAGCCACTGAG, -0.876. To CCCAGAAACACTGAACCTTGTCCCACTCTT belongs 2.17; to TGCTGGGCTGCATTCCCAGATGGTTAGGTA, -0.0978; to CCAAAACTCTCTCTCTGTGTCACATACACC, 0.462. As to GGTCACACTGCACCTGCCTGAACAAGTCCA, the binding signal (log2 normalized intensity) is -1.17.

Turning to AACCTGACTGCGCTCCCAGAAGCCTCCGGT, the binding signal (log2 normalized intensity) was -1.16. Take GTCACCATAAAACATTCTATTCTATCTGTA: the binding signal (log2 normalized intensity) is -1.17. Consider TGAGATAAAAAGAAGCTTGGTATGTCTGAT, for which the binding signal (log2 normalized intensity) was found to be 1.34. For the sequence ATTCTTTGCCATGACCTTTGAAGCCCAGAA, the binding signal (log2 normalized intensity) was found to be 4.66. With CATTGATCTAACAGGAGGTGGAGCTCAGGA, the binding signal (log2 normalized intensity) was -1.08. The result for TTCAGGGCAGAAGAGGTTATCACAGGCTTG reads -0.663; that for GTGAGAAGAGAAACACATGCAATCACACTA, -0.984; that for GTGGCTACCTGTGCAGATATTTAACCTTTG, 4.11. To TTATGTACCACCGTATTCCTAGCTCCTAGC belongs -1.11. As to GGCAACAGTTTTCTGGGATGCCCAAGGAAT, the binding signal (log2 normalized intensity) is -1.11. On to CACCTGATTCAATGTCTGGAAGTTCTTCCT, for which the binding signal (log2 normalized intensity) stood at 0.075. To CTGCAGTTCAAAGGCAATATCACTTGTTTG belongs 0.442; to TATTTCCACTGAGGTCAAGATAAGATACGA, 0.592; to CCAGGGAAGCTGGTAGCATGGCTCAGTCCA, -1.14. Take CTTGAGTAGCTGGGACTACAGGCAGGCACC: the binding signal (log2 normalized intensity) is -1.23.

For TGGTGTGTGTGTGTGTGTTTTGTGCCTGTT, the binding signal (log2 normalized intensity) was 3.08. GGAGAAGTTTTATGGCAGGGTCGGAATGTC: the binding signal (log2 normalized intensity) is 1.55. Regarding GGGCAATTGGTTTCCGCTAAGTCCAAAGGT, the binding signal (log2 normalized intensity) is 3.51.

Turning to GCTGTTTTTCCAGTTTTTGTTTGCACCTCA, the binding signal (log2 normalized intensity) was determined as 1.69.

For TGACCTGTGATAAGAAATGAATGTCACTTT, the binding signal (log2 normalized intensity) worked out at 1.62. Consider ACTTTGAACCAAGATATGCTAACATCCCTT, for which the binding signal (log2 normalized intensity) is -1.35. To CCACTAGAGAGACCGTCCCTGGGTACAACT belongs 0.737; to AGGGGGGAGAAATTAAAGCACATACTTCTT, -0.828. CCTTATTCTTAACAAGCTGAGCACCAGAAA: the binding signal (log2 normalized intensity) was -1.14. To CCTGCTGAGCCCAATCTAGCAAAAATCCTG belongs -1.04; to ACATTTTTATCCTTTTTTGAAGGTTAAAGT, 2.66. On to TCAACTAAGTGTTATCTAAATTAGATATGG, for which the binding signal (log2 normalized intensity) stood at 1.21. The result for GGAATTTGCCCTGTGGTCTAGCTTGTTCTC reads 2.32; that for TGTGTAGGAGTACACTCAGCACACCCCACG, 2.16. As for TCCAGGAATGTGCTAAAAAACAAACAAAAA, the binding signal (log2 normalized intensity) is -0.651. The result for CGCCCAGCCAGAAAAACAGCATTTTTATCA reads -1.11.

Consider AATGAACACCTGTTCTAATCAGTAGCTCAC, for which the binding signal (log2 normalized intensity) is -1.08. In the case of CTCTGCACAGCACAAGATAAGATAGGAATT, the binding signal (log2 normalized intensity) was -0.966.
